In PubChem BioAssay AID651820 (National Center for Advancing Translational Sciences (NCATS), 2012):
Hit rate of the full screen: of about 340,000 compounds, about 12,000 (3.5%) were called active. Inconclusive results, whose numbers are uncertain, are shown with a selection of clear calls. Calls follow the shape of the dose curve; as a rule, active = well fitted inhibition curve with a large enough effect; inconclusive = small, poorly fitted or top-dose-only effect, or another doubt; inactive = no such curve, though single readings can be large or run the other way. No potency is given beside an inconclusive call; the fits are too rough.

assay: qHTS Assay for Inhibitors of Hepatitis C Virus (HCV); settings: Huh7.5.1 HCVcc-Cre (HCVcc is cell-culture hepatitis C virus) infection, luciferase reporter, 44 h; activity change, negative = inhibition: at 41.8 µM (top of the series)
Summary of the method: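 Reporter virus HCVcc-Cre (~0.5 moi) infects cells exposed to compound; seeding density 1,000 cells/well with 4 h settling beforehand. Luminescence, 15 sec read, taken 44 h post-infection following a 15 min RT substrate incubation.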
% is scaled to controls: 0 for no effect and ±100 for the full control effect; potency is read from the fitted curve at half-maximal effect; tags tell the direction and shape of the fitted curve.

SMILES | Potency | activity change, negative = inhibition
COc1ccc(CCn2c(C)cc(C(=O)CN3C(=O)C(=O)N(C4CCCC4)C3=O)c2C)cc1OC | active: 10 µM | 
Cc1c(CCC(=O)N[C@@H](C)C(=O)O)c(=O)oc2cc3occ(-c4ccccc4)c3cc12 |  | inactive: 5.31%
O=C(NCc1ccccc1)C1=C[C@@H](C2CC2)C[C@@H](OCCCCO)O1 | inconclusive [inhibitor, single point] | 
CC(C)OC(=O)/C(=C\c1ccc2c(c1)c1ccccc1n2C)NC(=O)c1ccccc1 | inconclusive [inhibitor, partial curve] | 
CCCn1c(CCl)nc2cc(S(=O)(=O)N3CCOCC3)ccc21 |  | inactive: 8.62%
CCOc1ccccc1C(=O)NCC(=O)Nc1ccc2c(c1)OCO2 |  | inactive: 15.1%
Cc1cc2cc(CN(Cc3cccs3)S(=O)(=O)c3ccc4c(c3)OCCO4)c(=O)[nH]c2cc1C |  | inactive: 2.16%
COc1ccc(C2=NN(C(=O)CSC3=NN4CCCC(=O)N=C4S3)C(c3cccc(OC)c3OC)C2)cc1 (stereo not drawn) | inconclusive [inhibitor, single point] | 
CCOC(=O)c1sc(NC(=O)c2ccc(Br)o2)cc1C | inconclusive [inhibitor, single point] | 
CCOC(=O)c1c(C)[nH]c(C(C)=NNC(=O)c2cccs2)c1C | inconclusive [inhibitor, full curve, poor fit] | 
COc1cnc(-c2ccccn2)nc1N(C)c1ccccc1 | active: 10 µM | 
O=C(N/N=C/c1ccccc1OC(F)F)C1=COCCO1 | inconclusive [inhibitor, full curve] | 
CCC(CO)Oc1cc(NC(=O)c2ccccc2C)c2ncn(C(C)C)c2c1 (stereo not drawn) | inconclusive [inhibitor, partial curve] | 
O=S(=O)(NCCOCC(F)(F)C(F)F)c1ccc2oc3ccccc3c2c1 | inconclusive [inhibitor, single point] | 
O=C(Nc1ccc(S(=O)(=O)Nc2nccs2)cc1)C(F)(F)F |  | inactive: 11.9%
CCN1CCN(Cc2cc(OC)c(OC)cc2[N+](=O)[O-])CC1 |  | inactive: 1.8%
O=C(Nc1ccc(Cl)c([N+](=O)[O-])c1)C(Sc1ccccc1)c1ccccc1 (stereo not drawn) | inconclusive [inhibitor, single point] | 
Fc1ccc(-c2nnc3ccc(N4CCCC4)nn23)cc1 |  | inactive: -7.85%
COc1ccc(NC(=O)CN(c2ccc([N+](=O)[O-])cc2)S(=O)(=O)c2ccccc2)cc1 | inconclusive [inhibitor, full curve, poor fit] | 
COc1ccc(C2CCCN2C(=O)Nc2ccc(C)c(C)c2)cc1OC (stereo not drawn) | inconclusive [inhibitor, partial curve] | 
CC(=O)Nc1ccc(S(=O)(=O)Oc2ccc(/C=N/NC(=O)c3ccc(Cl)cc3)cc2)cc1 | active: 3.98 µM | 
CCc1cc(=O)oc2cc(C)cc(OC(C)C(=O)NCCCn3ccnc3)c12 (stereo not drawn) |  | inactive: 17.4%
Cc1ccc2sc(NNC(=O)C3=COCCO3)nc2c1C | inconclusive [inhibitor, partial curve] | 
Cc1cc(NC2CCCCC2)nc(N2CCOCC2)n1 | inconclusive [inhibitor, single point] | 
Cc1ccc(NC(=O)c2cc(CC(C)C)nc3ccccc23)cc1 | inconclusive [inhibitor, partial curve] | 

SMILES | Potency | activity change, negative = inhibition
Cc1cccc(/C=C2/Sc3ccc(C(=O)NCCN4CCCC4)cc3NC2=O)c1 | inconclusive [inhibitor, partial curve] | 
CN1C(C(=O)NCc2cccc(Br)c2)CC2Cn3c(nc4cc5ccccc5cc43)C21 (stereo not drawn) | inconclusive [inhibitor, partial curve] | 
Cc1ccc(O)c(C(=O)c2cc(C#N)c3nc4ccccc4n3c2)c1 | active: 5.01 µM | 
CCOC(=O)CSc1nc(N)c(C#N)cc1C#N |  | inactive: 8.79%
Cc1nn(-c2ccccc2)c(C)c1/C=N/NC(=O)CSc1nnc(SCc2ccc(Cl)cc2)s1 | active: 14.1 µM | 
O=C(NC12CC3CC(CC(C3)C1)C2)c1cc([N+](=O)[O-])ccc1N1CCOCC1 | inconclusive [inhibitor, partial curve, poor fit] | 
COc1ccc(-c2ccc(C#N)c(SCC(=O)NCc3ccco3)n2)cc1OC |  | inactive: -13.1%
COc1nc(N/N=C/c2ccc(-c3ccccc3[N+](=O)[O-])o2)nc(N2CCOCC2)n1 | active: 11.2 µM | 
CCOc1ccc(C2c3[nH]c4ccccc4c3C[C@H]3C(=O)N(C4CC4)CC(=O)N23)cc1OC (stereo partly drawn) |  | inactive: -2.81%
CCCn1c2ccccc2c2cn[nH]c(=O)c21 | inconclusive [inhibitor, partial curve] | 
CC(C)N(Cc1nccn1C)C(=O)c1cc(COc2ccc(F)cc2Cl)on1 |  | inactive: -54.1%
CCOc1ccc(NC(=O)COc2ccc(S(=O)(=O)N3CCCC3)cc2)cc1 | inconclusive [inhibitor, single point] | 
Cc1nc(N2CCCCC2)c2ccsc2n1 | inconclusive [inhibitor, single point] | 
O=C(OCCN1C(=O)c2ccccc2C1=O)c1cc(S(=O)(=O)N2CCOCC2)ccc1Cl | inactive | 
CCOC(=O)c1nn(-c2cccc(Cl)c2)c2nc(CC(C)C)c(C#N)c(=O)n12 | inconclusive [inhibitor, single point] | 
S=C(Nc1ccc2c(c1)OCO2)NC1CCN(Cc2ccccc2)CC1 | inconclusive [inhibitor, single point] | 
O=C(Cn1c(=O)c(=O)n(Cc2ccccc2)c2ccc(Cl)cc21)Nc1cccc(F)c1 | inconclusive [inhibitor, full curve, poor fit] | 
Cc1c(C(=O)Nc2ccc3c(c2)OCCO3)sc2ncnc(N3CCCCC3C)c12 (stereo not drawn) | active: 11.2 µM | 
O=C(COC(=O)C1=COCCO1)Nc1cc(C(F)(F)F)ccc1Cl |  | inactive: -2.83%
Cc1noc(C)c1C(=O)Nc1nc2ccc(Cl)cc2s1 |  | inactive: -24%
COc1ccc(CCC(C)N2CCC(CO)(Cc3ccccc3)CC2)cc1 (stereo not drawn) | inconclusive [inhibitor, single point] | 
Cc1ccc(NS(=O)(=O)c2ccc(C3CCCCC3)cc2)cc1 | inconclusive [inhibitor, single point] | 
COC(=O)c1cc(NC(=O)c2cc(-c3ccc(C(F)(F)F)cc3)oc2C(F)(F)F)ccc1N1CCOCC1 | active: 3.55 µM | 
CCn1cc(C(=O)OCc2ccccc2)c(=O)c2ccc(C)nc21 | inconclusive [inhibitor, single point] | 
O=C(CSc1nc2ncc(Cl)cc2[nH]1)N1CCC(Cc2ccccc2)CC1 |  | inactive: 10.9%

SMILES | Potency | activity change, negative = inhibition
COc1ccccc1-c1cc(C(=O)NC(C)C)no1 | inconclusive [inhibitor, partial curve] | 
O=C(NC1CC1)c1sc2ccccc2c1Cl |  | inactive: -7.13%
COc1ccccc1N1CC(C(=O)NCCC2=CCCCC2)CC1=O (stereo not drawn) | inconclusive [inhibitor, single point] | 
COc1nc(NC2OC(CO)C(O)C(O)C2O)c(N)c(=O)[nH]1 (stereo not drawn) |  | inactive: 39.7%
Cc1ccc(S(=O)(=O)N2CCN(C(=O)Cn3c(=O)oc4ccccc43)CC2)cc1 |  | inactive: 7.52%
CCCC(=O)Nc1ccc(S(=O)(=O)N2CCC(c3nc4ccccc4[nH]3)CC2)cc1 | inconclusive [inhibitor, single point] | 
COc1ccc(C(=O)NC(=S)NNC(=O)c2cnccn2)cc1 | inconclusive [inhibitor, partial curve] | 
O=C(Nc1ccc(Cl)c(S(=O)(=O)N2CCOCC2)c1)c1ccccc1-c1ccc(C(F)(F)F)cc1 | inconclusive [inhibitor, single point] | 
CC(C)(C)NC(=O)CSc1ccc(C(C)(C)C)cc1 | inconclusive [inhibitor, partial curve] | 
O=C(/C=C/c1ccc(Br)o1)Nc1nccs1 |  | inactive: -12.6%
NC(=O)c1ccc(N2CCN(c3ccccc3O)CC2)c([N+](=O)[O-])c1 |  | inactive: -9.95%
Cc1ccc(/C([O-])=C(/C(=S)NCc2ccccc2)[n+]2ccccc2)cc1[N+](=O)[O-] |  | inactive: -5.02%
Cn1cccc1Cc1nnc(SCC(=O)N2CCc3ccccc32)n1CCc1ccccc1 | inactive | 
COc1cccc(N2CCN(C(=O)c3[nH]c(C)c(C(C)=O)c3C)CC2)c1 | inconclusive [inhibitor, single point] | 
CCOc1cc(C(=S)N2CCOCC2)ccc1OC(=O)c1cccc(C)c1 | active: 11.2 µM | 
O=C(NC(=S)Nc1ncccn1)c1ccccc1Cl |  | inactive: 5.71%
COc1ccccc1CN1CCCC(N2CCN(c3ccc(F)cc3)CC2)C1 (stereo not drawn) | inconclusive [inhibitor, full curve] | 
CCOC(=O)C1=CN(Cc2ccco2)S(=O)(=O)N(C)C1c1ccc2ccccc2c1 (stereo not drawn) | inconclusive [inhibitor, single point] | 
CCOc1ccc(NC(=O)CSc2nc3ccccc3nc2N2CCCC2)cc1 |  | inactive: -10.3%
COc1ccnc(Oc2ccc(F)cc2)c1C(=O)N/C=N/OCc1c(Cl)cccc1Cl | inconclusive [inhibitor, single point] | 
Cc1nn(C)cc1CNCc1ccc(OCC(O)CN(C)Cc2ccccc2)cc1 (stereo not drawn) | inconclusive [inhibitor, partial curve] | 
Clc1ccc(SCc2csc(N3CCOCC3)n2)cc1 | inconclusive [inhibitor, single point] | 
C/C(=N\N=c1/sc2ccccc2n1C)c1ccccn1 | inconclusive [inhibitor, single point] | 
